# Test results reported in the supplement of paper PMC8728848.
# Some of the results follow.
# Experiments:
# Assay in all cases: glycan array binding signal (z-score within array); higher = stronger binding
# Conditions in all cases: glycan notation: IUPAC condensed, linker removed
# [1] = target: Fuc(a1-2)Gal(b1-4)GlcNAc(b1-3)Gal(b1-4)GlcNAc(b1-2)Man(a1-3)[Fuc(a1-2)Gal(b1-4)GlcNAc(b1-3)Gal(b1-4)GlcNAc(b1-2)Man(a1-6)]Man(b1-4)GlcNAc(b1-4)GlcNAc
# Procedure, shortened: (§1)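 Glycan array data were curated from 3228 arrays in the Consortium for Functional Glycomics database and kept only where the protein sequence was available. Glycan names were converted to IUPAC-condensed notation, and columns mapping to the same glycan were averaged. The binding signal is a within-array Z-score, averaged across arrays of the same protein sequence at different concentrations or buffers and across linkers. Negative Z-scores can be read as non-binding.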
# [2] = target: Fuc(a1-2)Gal(b1-4)GlcNAc(b1-3)Gal(b1-4)GlcNAc(b1-3)Gal(b1-4)GlcNAc
# Procedure, shortened: as §1
# [3] = target: Fuc(a1-2)Gal(b1-4)GlcNAc(b1-3)GalNAc
# Procedure, shortened: as §1
# [4] = target: Fuc(a1-2)Gal(b1-4)GlcNAc(b1-3)[Fuc(a1-2)Gal(b1-4)GlcNAc(b1-6)]GalNAc
# Procedure, shortened: as §1
# [5] = target: Fuc(a1-2)Gal(b1-4)GlcNAc(b1-3)[Fuc(a1-3)[Gal(b1-4)]GlcNAc(b1-6)]Gal(b1-4)Glc
# Procedure, shortened: as §1
# [6] = target: Fuc(a1-2)Gal(b1-4)GlcNAc(b1-6)GalNAc
# Procedure, shortened: as §1
# [7] = target: Fuc(a1-2)Gal(b1-4)GlcNAc6S
# Procedure, shortened: as §1
# [8] = target: Fuc(a1-2)Gal(b1-4)[Fuc(a1-3)]GlcNAc
# Procedure, shortened: as §1
# [9] = target: Fuc(a1-2)Gal(b1-4)[Fuc(a1-3)]GlcNAc(b1-2)Man(a1-3)[Fuc(a1-2)Gal(b1-4)[Fuc(a1-3)]GlcNAc(b1-2)Man(a1-6)]Man(b1-4)GlcNAc(b1-4)[Fuc(a1-6)]GlcNAc
# Procedure, shortened: as §1
# [10] = target: Fuc(a1-2)Gal(b1-4)[Fuc(a1-3)]GlcNAc(b1-2)[Fuc(a1-2)Gal(b1-4)[Fuc(a1-3)]GlcNAc(b1-4)]Man(a1-3)[Fuc(a1-2)Gal(b1-4)[Fuc(a1-3)]GlcNAc(b1-2)Man(a1-6)]Man(b1-4)GlcNAc(b1-4)GlcNAc
# Procedure, shortened: as §1
# [11] = target: Fuc(a1-2)Gal(b1-4)[Fuc(a1-3)]GlcNAc(b1-3)Gal(b1-4)[Fuc(a1-3)]GlcNAc
# Procedure, shortened: as §1
# [12] = target: Fuc(a1-2)Gal(b1-4)[Fuc(a1-3)]GlcNAc(b1-3)Gal(b1-4)[Fuc(a1-3)]GlcNAc(b1-3)Gal(b1-4)[Fuc(a1-3)]GlcNAc
# Procedure, shortened: as §1
# [13] = target: Fuc(a1-2)Gal(b1-4)[Fuc(a1-3)]GlcNAc(b1-3)GalNAc
# Procedure, shortened: as §1
# [14] = target: Fuc(a1-2)Gal(b1-4)[Fuc(a1-3)]GlcNAc(b1-3)[Neu5Ac(a2-6)Gal(b1-4)GlcNAc(b1-6)]Gal(b1-4)Glc
# Procedure, shortened: as §1
# [15] = target: Fuc(a1-2)Gal3S(b1-4)GlcNAc
# Procedure, shortened: as §1
# [16] = target: Fuc(a1-2)Gal6S(b1-3)GlcNAc
# Procedure, shortened: as §1
# [17] = target: Fuc(a1-2)Gal6S(b1-3)GlcNAc6S
# Procedure, shortened: as §1
# Fuc(a1-2)Gal6S(b1-4)Glc = target: Fuc(a1-2)Gal6S(b1-4)Glc
# Procedure, shortened: as §1
# [18] = target: Fuc(a1-2)Gal6S(b1-4)Glc6S
# Procedure, shortened: as §1
# Fuc(a1-2)[Gal(a1-3)]Gal = target: Fuc(a1-2)[Gal(a1-3)]Gal
# Procedure, shortened: as §1
# [19] = target: Fuc(a1-2)[Gal(a1-3)]Gal(b1-3)GalNAc
# Procedure, shortened: as §1
# [20] = target: Fuc(a1-2)[Gal(a1-3)]Gal(b1-3)GalNAc(b1-3)Gal(a1-4)Gal(b1-4)Glc
# Procedure, shortened: as §1
# [21] = target: Fuc(a1-2)[Gal(a1-3)]Gal(b1-3)GlcNAc
# Procedure, shortened: as §1
# [22] = target: Fuc(a1-2)[Gal(a1-3)]Gal(b1-3)GlcNAc(b1-2)Man(a1-3)[Fuc(a1-2)[Gal(a1-3)]Gal(b1-3)GlcNAc(b1-2)Man(a1-6)]Man(b1-4)GlcNAc(b1-4)GlcNAc
# Procedure, shortened: as §1
# [23] = target: Fuc(a1-2)[Gal(a1-3)]Gal(b1-3)GlcNAc(b1-2)Man(a1-3)[Fuc(a1-2)[Gal(a1-3)]Gal(b1-3)GlcNAc(b1-2)Man(a1-6)]Man(b1-4)GlcNAc(b1-4)[Fuc(a1-6)]GlcNAc
# Procedure, shortened: as §1
# [24] = target: Fuc(a1-2)[Gal(a1-3)]Gal(b1-3)GlcNAc(b1-3)GalNAc
# Procedure, shortened: as §1
# [25] = target: Fuc(a1-2)[Gal(a1-3)]Gal(b1-3)GlcNAc(b1-6)GalNAc
# Procedure, shortened: as §1
# [26] = target: Fuc(a1-2)[Gal(a1-3)]Gal(b1-4)Glc
# Procedure, shortened: as §1
# [27] = target: Fuc(a1-2)[Gal(a1-3)]Gal(b1-4)GlcNAc
# Procedure, shortened: as §1
# [28] = target: Fuc(a1-2)[Gal(a1-3)]Gal(b1-4)GlcNAc(b1-2)Man
# Procedure, shortened: as §1
# [29] = target: Fuc(a1-2)[Gal(a1-3)]Gal(b1-4)GlcNAc(b1-2)Man(a1-3)[Fuc(a1-2)[Gal(a1-3)]Gal(b1-4)GlcNAc(b1-2)Man(a1-6)]Man(b1-4)GlcNAc(b1-4)GlcNAc
# Procedure, shortened: as §1
# [30] = target: Fuc(a1-2)[Gal(a1-3)]Gal(b1-4)GlcNAc(b1-2)Man(a1-3)[Fuc(a1-2)[Gal(a1-3)]Gal(b1-4)GlcNAc(b1-2)Man(a1-6)]Man(b1-4)GlcNAc(b1-4)[Fuc(a1-6)]GlcNAc
# Procedure, shortened: as §1
# [31] = target: Fuc(a1-2)[Gal(a1-3)]Gal(b1-4)GlcNAc(b1-3)GalNAc
# Procedure, shortened: as §1
# [32] = target: Fuc(a1-2)[Gal(a1-3)]Gal(b1-4)GlcNAc(b1-6)GalNAc
# Procedure, shortened: as §1
# [33] = target: Fuc(a1-2)[Gal(a1-3)]Gal(b1-4)[Fuc(a1-3)]Glc
# Procedure, shortened: as §1
# [34] = target: Fuc(a1-2)[Gal(a1-3)]Gal(b1-4)[Fuc(a1-3)]GlcNAc
# Procedure, shortened: as §1
# [35] = target: Fuc(a1-2)[Gal(a1-3)]Gal(b1-4)[Fuc(a1-3)]GlcNAc(b1-3)GalNAc
# Procedure, shortened: as §1
# [36] = target: Fuc(a1-2)[Gal(a1-4)]Gal(b1-4)GlcNAc
# Procedure, shortened: as §1
# [37] = target: Fuc(a1-2)[GalNAc(a1-3)]Gal
# Procedure, shortened: as §1
# [38] = target: Fuc(a1-2)[GalNAc(a1-3)]Gal(b1-3)GalNAc(a1-3)[Fuc(a1-2)]Gal(b1-4)GlcNAc
# Procedure, shortened: as §1
# [39] = target: Fuc(a1-2)[GalNAc(a1-3)]Gal(b1-3)GalNAc(b1-3)Gal(a1-4)Gal(b1-4)Glc
# Procedure, shortened: as §1
# [40] = target: Fuc(a1-2)[GalNAc(a1-3)]Gal(b1-3)GlcNAc
# Procedure, shortened: as §1
# [41] = target: Fuc(a1-2)[GalNAc(a1-3)]Gal(b1-3)GlcNAc(b1-2)Man(a1-3)[Fuc(a1-2)[GalNAc(a1-3)]Gal(b1-3)GlcNAc(b1-2)Man(a1-6)]Man(b1-4)GlcNAc(b1-4)GlcNAc
# Procedure, shortened: as §1
# [42] = target: Fuc(a1-2)[GalNAc(a1-3)]Gal(b1-3)GlcNAc(b1-2)Man(a1-3)[Fuc(a1-2)[GalNAc(a1-3)]Gal(b1-3)GlcNAc(b1-2)Man(a1-6)]Man(b1-4)GlcNAc(b1-4)[Fuc(a1-6)]GlcNAc
# Procedure, shortened: as §1
# [43] = target: Fuc(a1-2)[GalNAc(a1-3)]Gal(b1-3)GlcNAc(b1-3)GalNAc
# Procedure, shortened: as §1
binder,measurement,setting,value
"MPA (Maclura pomifera), P18674 (protein) GVTFDDGAYTGIREINFEYNSETAIGGLRVTYDLNGMPFVAEDHKSFITGFKPVKISLEFPSEYIVEVSGYVGKVEGYTVIRSLTFKTNKQTYGPYGVTNGTPFSLPIENGLIVGFKGSIGYWLDYFSIYLSL",glycan array binding signal (z-score),[1],0.487
same,glycan array binding signal (z-score),[2],-0.239
same,glycan array binding signal (z-score),[3],-0.163
same,glycan array binding signal (z-score),[4],-0.236
same,glycan array binding signal (z-score),[5],-0.245
same,glycan array binding signal (z-score),[6],-0.051
same,glycan array binding signal (z-score),[7],-0.163
same,glycan array binding signal (z-score),[8],-0.23
same,glycan array binding signal (z-score),[9],2
same,glycan array binding signal (z-score),[10],2.32
same,glycan array binding signal (z-score),[11],-0.271
same,glycan array binding signal (z-score),[12],-0.228
same,glycan array binding signal (z-score),[13],-0.203
same,glycan array binding signal (z-score),[14],-0.275
same,glycan array binding signal (z-score),[15],-0.171
same,glycan array binding signal (z-score),[16],-0.247
same,glycan array binding signal (z-score),[17],1.52
same,glycan array binding signal (z-score),Fuc(a1-2)Gal6S(b1-4)Glc,-0.251
same,glycan array binding signal (z-score),[18],-0.194
same,glycan array binding signal (z-score),Fuc(a1-2)[Gal(a1-3)]Gal,-0.257
same,glycan array binding signal (z-score),[19],-0.242
same,glycan array binding signal (z-score),[20],-0.195
same,glycan array binding signal (z-score),[21],-0.1
same,glycan array binding signal (z-score),[22],-0.085
same,glycan array binding signal (z-score),[23],-0.241
same,glycan array binding signal (z-score),[24],-0.238
same,glycan array binding signal (z-score),[25],-0.204
same,glycan array binding signal (z-score),[26],-0.03
same,glycan array binding signal (z-score),[27],-0.212
same,glycan array binding signal (z-score),[28],-0.187
same,glycan array binding signal (z-score),[29],-0.084
same,glycan array binding signal (z-score),[30],-0.282
same,glycan array binding signal (z-score),[31],-0.257
same,glycan array binding signal (z-score),[32],-0.198
same,glycan array binding signal (z-score),[33],-0.283
same,glycan array binding signal (z-score),[34],-0.157
same,glycan array binding signal (z-score),[35],-0.311
same,glycan array binding signal (z-score),[36],-0.16
same,glycan array binding signal (z-score),[37],-0.232
same,glycan array binding signal (z-score),[38],-0.356
same,glycan array binding signal (z-score),[39],-0.212
same,glycan array binding signal (z-score),[40],-0.175
same,glycan array binding signal (z-score),[41],-0.192
same,glycan array binding signal (z-score),[42],-0.363
same,glycan array binding signal (z-score),[43],-0.034
